These are yes or no findings as the source states them, for the method shown. In cells and extracts the contact can be indirect. Some binding calls cover weakened binding; strength is not graded here. For part of these data: Sequences can lack the tags named with a protein. Values belong to the molecule of their own block, whether it stands above or below them.
What was measured:
[1] = molecular target: T1, Strep-CDAN1 HMHA1* (R541A/R544A/R548A) (human) (UniProt Q8IWY9); assay: pull-down; Strep-Tactin pulldown of ST-CDAN1 variants co-transfected with FLAG-tagged ASF1A or ASF1B variants in Flp-In 293 T-REx cells; immunoblotting; IP buffer with 1% Triton X-100, 1 hr at 4 °C
T1 sequence: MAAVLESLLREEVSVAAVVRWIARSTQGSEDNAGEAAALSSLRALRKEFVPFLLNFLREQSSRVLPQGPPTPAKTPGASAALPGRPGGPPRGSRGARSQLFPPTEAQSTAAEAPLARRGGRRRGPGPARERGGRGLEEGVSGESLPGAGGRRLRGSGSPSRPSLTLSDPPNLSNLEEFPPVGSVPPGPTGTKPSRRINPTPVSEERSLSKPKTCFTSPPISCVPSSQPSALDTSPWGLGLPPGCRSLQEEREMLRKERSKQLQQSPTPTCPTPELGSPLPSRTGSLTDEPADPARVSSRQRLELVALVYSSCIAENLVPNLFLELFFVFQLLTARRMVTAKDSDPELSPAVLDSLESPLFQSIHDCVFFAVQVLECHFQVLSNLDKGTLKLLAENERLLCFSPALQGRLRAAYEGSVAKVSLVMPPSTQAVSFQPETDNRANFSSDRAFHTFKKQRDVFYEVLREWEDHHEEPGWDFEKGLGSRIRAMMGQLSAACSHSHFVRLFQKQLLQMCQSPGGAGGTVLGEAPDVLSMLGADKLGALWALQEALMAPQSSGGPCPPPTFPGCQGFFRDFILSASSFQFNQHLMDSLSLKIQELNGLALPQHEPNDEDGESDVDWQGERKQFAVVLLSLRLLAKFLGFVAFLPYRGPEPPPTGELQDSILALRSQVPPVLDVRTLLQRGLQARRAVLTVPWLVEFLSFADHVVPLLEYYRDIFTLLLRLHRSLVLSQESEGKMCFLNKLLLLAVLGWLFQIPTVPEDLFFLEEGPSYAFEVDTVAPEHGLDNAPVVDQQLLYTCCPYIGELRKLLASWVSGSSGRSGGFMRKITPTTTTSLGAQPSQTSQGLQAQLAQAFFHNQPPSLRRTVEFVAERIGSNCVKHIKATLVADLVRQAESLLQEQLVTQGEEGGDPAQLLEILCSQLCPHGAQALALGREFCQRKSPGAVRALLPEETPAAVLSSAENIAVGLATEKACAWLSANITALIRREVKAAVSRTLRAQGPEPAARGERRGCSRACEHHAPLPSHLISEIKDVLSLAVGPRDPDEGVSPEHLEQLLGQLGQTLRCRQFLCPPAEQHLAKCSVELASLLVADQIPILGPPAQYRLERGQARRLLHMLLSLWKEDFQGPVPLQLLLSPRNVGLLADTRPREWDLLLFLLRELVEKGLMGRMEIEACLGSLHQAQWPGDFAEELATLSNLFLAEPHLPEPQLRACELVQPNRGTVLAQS

Chains of the proteins cited; added tags and fusions are not shown. Lines headed by an entry give the natural chain unless they say otherwise; changes in a name come on top.
UniProt Q9Y294: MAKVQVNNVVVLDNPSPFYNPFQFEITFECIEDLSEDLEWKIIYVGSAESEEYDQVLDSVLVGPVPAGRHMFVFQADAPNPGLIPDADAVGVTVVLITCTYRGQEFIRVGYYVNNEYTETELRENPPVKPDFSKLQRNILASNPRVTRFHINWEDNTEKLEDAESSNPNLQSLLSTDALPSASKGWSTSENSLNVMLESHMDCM
UniProt Q9NVP2: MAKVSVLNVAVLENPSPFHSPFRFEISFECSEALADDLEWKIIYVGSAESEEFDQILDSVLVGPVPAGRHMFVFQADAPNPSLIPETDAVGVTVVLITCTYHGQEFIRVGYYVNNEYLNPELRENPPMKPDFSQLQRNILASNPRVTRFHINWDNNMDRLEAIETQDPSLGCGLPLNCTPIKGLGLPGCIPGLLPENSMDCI

[2] = molecular target: FLAG-tagged ASF1A (F-ASF1A) (human) (UniProt Q9Y294); assay: co-IP; anti-FLAG IP (first step of the tandem purification) from lysates of transiently transfected Expi293 cells; IP buffer with 1% Triton X-100, 4 °C; elution with 3xFLAG peptide; immunoblotting
[3] = molecular target: T2, HMHA1* BDA1* ST-CDAN1 (human) (UniProt Q8IWY9); assay: pull-down; Strep-Tactin pulldown of ST-CDAN1 variants co-transfected with FLAG-tagged ASF1A or ASF1B variants in Flp-In 293 T-REx cells; immunoblotting; IP buffer with 1% Triton X-100, 1 hr at 4 °C
T2 sequence: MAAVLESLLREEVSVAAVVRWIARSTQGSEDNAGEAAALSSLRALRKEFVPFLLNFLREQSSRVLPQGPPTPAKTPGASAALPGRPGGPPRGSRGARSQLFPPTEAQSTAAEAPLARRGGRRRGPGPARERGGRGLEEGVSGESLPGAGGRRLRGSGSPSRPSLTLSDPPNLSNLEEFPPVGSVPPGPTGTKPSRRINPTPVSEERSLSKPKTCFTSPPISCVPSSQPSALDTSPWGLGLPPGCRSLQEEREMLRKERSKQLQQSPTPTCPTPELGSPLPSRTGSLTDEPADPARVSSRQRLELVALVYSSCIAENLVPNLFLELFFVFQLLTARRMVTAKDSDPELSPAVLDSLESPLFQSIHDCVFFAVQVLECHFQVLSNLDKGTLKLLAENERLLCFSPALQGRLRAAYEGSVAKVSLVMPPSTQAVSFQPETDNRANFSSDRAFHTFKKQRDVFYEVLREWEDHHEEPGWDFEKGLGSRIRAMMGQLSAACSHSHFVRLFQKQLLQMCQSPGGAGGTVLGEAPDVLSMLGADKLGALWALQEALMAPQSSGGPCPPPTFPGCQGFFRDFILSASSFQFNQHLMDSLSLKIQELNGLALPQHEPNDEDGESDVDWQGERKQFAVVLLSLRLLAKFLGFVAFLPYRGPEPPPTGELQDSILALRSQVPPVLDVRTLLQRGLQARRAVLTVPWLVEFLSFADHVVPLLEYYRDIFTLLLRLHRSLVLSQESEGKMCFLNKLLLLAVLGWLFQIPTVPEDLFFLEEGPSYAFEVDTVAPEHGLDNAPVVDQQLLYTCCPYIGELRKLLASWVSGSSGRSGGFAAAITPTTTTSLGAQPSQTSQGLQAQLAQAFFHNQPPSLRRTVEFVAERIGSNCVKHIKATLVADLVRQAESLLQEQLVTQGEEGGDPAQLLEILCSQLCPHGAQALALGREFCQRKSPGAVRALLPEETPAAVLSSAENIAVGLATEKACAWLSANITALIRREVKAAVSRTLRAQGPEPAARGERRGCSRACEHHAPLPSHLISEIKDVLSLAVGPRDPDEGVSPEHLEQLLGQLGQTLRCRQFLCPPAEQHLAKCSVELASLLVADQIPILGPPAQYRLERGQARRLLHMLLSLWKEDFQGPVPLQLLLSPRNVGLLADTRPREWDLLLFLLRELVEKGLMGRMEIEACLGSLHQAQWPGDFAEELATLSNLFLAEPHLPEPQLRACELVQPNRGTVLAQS

[4] = molecular target: T3, FLAG-tagged CDIN1 (F-CDIN1) (UniProt Q9Y2V0); assay: co-IP; anti-FLAG IP (first step of the tandem purification) from lysates of transiently transfected Expi293 cells; IP buffer with 1% Triton X-100, 4 °C; elution with 3xFLAG peptide; immunoblotting
T3 sequence: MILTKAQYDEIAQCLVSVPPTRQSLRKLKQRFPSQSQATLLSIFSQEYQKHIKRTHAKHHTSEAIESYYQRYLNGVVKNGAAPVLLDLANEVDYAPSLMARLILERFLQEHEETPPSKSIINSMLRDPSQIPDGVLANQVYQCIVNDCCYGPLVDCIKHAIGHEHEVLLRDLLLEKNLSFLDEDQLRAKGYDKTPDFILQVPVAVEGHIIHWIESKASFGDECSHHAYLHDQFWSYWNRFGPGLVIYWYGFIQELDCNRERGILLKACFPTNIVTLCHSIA

[5] = molecular target: T4, endogenous CDIN1 with a C-terminal HaloTag-FLAG (HF) tag (human (endogenous in Flp-In 293 T-REx)) (UniProt Q9Y2V0); assay: co-IP; anti-FLAG M2 agarose IP of endogenously HaloTag-FLAG tagged CDAN1 or CDIN1 from Flp-In 293 T-REx lysates; IP buffer 50 mM HEPES pH 7.5, 100 mM KOAc, 2.5 Mg(OAc)2, 1% Triton X-100, 1 mM DTT; immunoblotting
T4 sequence: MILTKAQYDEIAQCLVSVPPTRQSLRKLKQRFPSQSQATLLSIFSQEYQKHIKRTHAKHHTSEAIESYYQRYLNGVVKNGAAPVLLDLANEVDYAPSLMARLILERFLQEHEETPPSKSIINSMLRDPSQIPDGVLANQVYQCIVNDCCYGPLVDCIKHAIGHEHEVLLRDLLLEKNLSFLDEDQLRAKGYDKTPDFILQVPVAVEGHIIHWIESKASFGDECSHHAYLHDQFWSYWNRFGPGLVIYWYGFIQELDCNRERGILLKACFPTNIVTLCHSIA

binding [2]: binds
Molecule: endogenous ASF1A (from UniProt Q9Y294 1-204) (other; other documents disagree on this pair)

binding [4]: binds
Molecule: HA-tagged ASF1A (from UniProt Q9Y294 1-204)

Second part, the molecule before the results:

Molecule: FLAG-ASF1B RQ (R23Q) (from UniProt Q9NVP2 1-202)
binding [1]: no binding

Molecule: FLAG-ASF1B QN (S5Q/L7N) (from UniProt Q9NVP2 1-202)
binding [3]: no binding | binding [1]: binds

B1: Strep-tagged CDAN1 (ST-CDAN1), wildtype (natural protein, human)
chain: MAAVLESLLREEVSVAAVVRWIARSTQGSEDNAGEAAALSSLRALRKEFVPFLLNFLREQSSRVLPQGPPTPAKTPGASAALPGRPGGPPRGSRGARSQLFPPTEAQSTAAEAPLARRGGRRRGPGPARERGGRGLEEGVSGESLPGAGGRRLRGSGSPSRPSLTLSDPPNLSNLEEFPPVGSVPPGPTGTKPSRRINPTPVSEERSLSKPKTCFTSPPISCVPSSQPSALDTSPWGLGLPPGCRSLQEEREMLRKERSKQLQQSPTPTCPTPELGSPLPSRTGSLTDEPADPARVSSRQRLELVALVYSSCIAENLVPNLFLELFFVFQLLTARRMVTAKDSDPELSPAVLDSLESPLFQSIHDCVFFAVQVLECHFQVLSNLDKGTLKLLAENERLLCFSPALQGRLRAAYEGSVAKVSLVMPPSTQAVSFQPETDNRANFSSDRAFHTFKKQRDVFYEVLREWEDHHEEPGWDFEKGLGSRIRAMMGQLSAACSHSHFVRLFQKQLLQMCQSPGGAGGTVLGEAPDVLSMLGADKLGRLWRLQERLMAPQSSGGPCPPPTFPGCQGFFRDFILSASSFQFNQHLMDSLSLKIQELNGLALPQHEPNDEDGESDVDWQGERKQFAVVLLSLRLLAKFLGFVAFLPYRGPEPPPTGELQDSILALRSQVPPVLDVRTLLQRGLQARRAVLTVPWLVEFLSFADHVVPLLEYYRDIFTLLLRLHRSLVLSQESEGKMCFLNKLLLLAVLGWLFQIPTVPEDLFFLEEGPSYAFEVDTVAPEHGLDNAPVVDQQLLYTCCPYIGELRKLLASWVSGSSGRSGGFMRKITPTTTTSLGAQPSQTSQGLQAQLAQAFFHNQPPSLRRTVEFVAERIGSNCVKHIKATLVADLVRQAESLLQEQLVTQGEEGGDPAQLLEILCSQLCPHGAQALALGREFCQRKSPGAVRALLPEETPAAVLSSAENIAVGLATEKACAWLSANITALIRREVKAAVSRTLRAQGPEPAARGERRGCSRACEHHAPLPSHLISEIKDVLSLAVGPRDPDEGVSPEHLEQLLGQLGQTLRCRQFLCPPAEQHLAKCSVELASLLVADQIPILGPPAQYRLERGQARRLLHMLLSLWKEDFQGPVPLQLLLSPRNVGLLADTRPREWDLLLFLLRELVEKGLMGRMEIEACLGSLHQAQWPGDFAEELATLSNLFLAEPHLPEPQLRACELVQPNRGTVLAQS
notes: Codanin-1 (CDAN1), human, 1227 residues; cDNA from Horizon Discovery/Dharmacon, its point mutation S421F corrected; same construct used in Expi293 and in Flp-In 293 T-REx cells; dimer by SEC-MALS and cryo-EM; also called Strep-CDAN1; WT CDAN1; source: Expi293, transiently transfected, in lysate and purified in complexes (anti-FLAG, Strep-Tactin); Flp-In 293 T-REx, transiently transfected, in …
binding [5]: binds
